Results as given in PubChem BioAssay (NCI).
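Following 48 hours of exposure in 96-well plates, responses at five concentrations were used to interpolate endpoints linearly. At the TGI there is no net growth.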 The source holds more than one record for some entries. This is not the full list of results. There may be further records. Records of one sample usually come from different ranges of test concentrations, not given here; some values may only mark the edge of a range.

Key:
Experiment in all cases: NCI anticancer screen, dose series, 48 h
[1] = tested on: U251 CNS
[2] = tested on: TK-10 renal
[3] = tested on: UACC-62 melanoma
[4] = tested on: MOLT-4 leukemia
[5] = tested on: HCC-2998 colon
[6] = tested on: BT-549 breast
[7] = tested on: KM12 colon
[8] = tested on: OVCAR-4 ovarian
[9] = tested on: SR leukemia
[10] = tested on: COLO 205 colon
[11] = tested on: OVCAR-3 ovarian
[12] = tested on: SF-539 CNS
[13] = tested on: OVCAR-5 ovarian
[14] = tested on: HL-60(TB) leukemia
[15] = tested on: CAKI-1 renal
[16] = tested on: PC-3 prostate
[17] = tested on: UO-31 renal
[18] = tested on: DU-145 prostate
[19] = tested on: EKVX NSCLC
[20] = tested on: UACC-257 melanoma
[21] = tested on: HOP-92 NSCLC
[22] = tested on: NCI-H522 lung
[23] = tested on: NCI-H460 lung
[24] = tested on: SK-OV-3 ovarian
[25] = tested on: IGROV1 ovarian
[26] = tested on: SN12C renal
[27] = tested on: NCI-H23 lung
[28] = tested on: MDA-N

CC(=O)O[C@H]1C(=O)[C@@]2(C)[C@H]([C@H](OC(=O)c3ccccc3)[C@]3(O)C[C@H](OC(=O)[C@H](O)[C@@H](NC(=O)c4ccccc4)c4ccccc4)C(C)=C1C3(C)C)[C@]1(OC(C)=O)CO[C@@H]1C[C@@H]2O
TGI [1]: 624 nM, 2.69 µM, 8.79 µM, 48.2 µM, 30.6 µM
TGI [2]: 915 nM [mean of 17 tests] and 142 nM, 958 nM, > 43.1 µM [mean of 2 tests] and 2.66 µM [mean of 20 tests] and 52.1 µM [mean of 8 tests]
TGI [3]: 990 nM, 760 nM, 9.95 µM, 20.8 µM, 38.9 µM
TGI [4]: 948 nM [mean of 17 tests] and 375 nM, > 59.5 µM [mean of 2 tests] and 7.23 µM [mean of 25 tests] and 72.9 µM [mean of 8 tests]
TGI [5]: 151 nM, 4.66 nM, 230 nM, 16.8 µM, 2.97 µM
TGI [6]: 783 nM, 540 nM, 1.19 µM, 474 nM, 15.2 µM
TGI [7]: 44.8 nM, 44.1 µM [1 test] and 259 nM [mean of 16 tests] and 320 nM [mean of 2 tests] and 21.3 µM [mean of 24 tests] and 9.61 µM [mean of 8 tests]
TGI [8]: 4.5 µM, 65.9 µM [mean of 2 tests] and 19 µM [mean of 23 tests] and > 100 µM [mean of 8 tests]
TGI [9]: > 100 µM [1 test] and 3.28 µM [mean of 14 tests] and 271 nM [mean of 15 tests] and 167 nM [mean of 2 tests] and 15.1 µM [mean of 7 tests]
TGI [10]: 179 nM, 60.3 nM, 1.48 µM, 1.11 µM, 5.15 µM
TGI [11]: 9.72 nM, 32.1 nM [1 test] and 154 nM [mean of 16 tests] and 1.98 µM [mean of 2 tests] and 44.9 nM [mean of 24 tests] and 15 µM [mean of 4 tests]
TGI [12]: 76.9 nM, 4.48 nM, 25.2 nM, 59.3 nM, > 100 µM, 36.9 nM
TGI [13]: 740 nM [mean of 16 tests] and 1.51 µM, 5.44 µM [mean of 2 tests] and 4.9 µM [mean of 27 tests] and 40.5 µM [mean of 8 tests]
TGI [14]: 43.3 nM, 88.1 nM, 41.5 nM, 29.7 µM, 357 nM
TGI [15]: 1.67 µM, 13.3 µM, 98.4 µM
TGI [16]: 794 nM, 195 nM, 2.78 µM, 11.8 µM, > 100 µM, 31.5 µM
TGI [17]: 60.1 nM, 2.04 µM, 18.3 µM, 36.8 µM, 38.3 µM
TGI [18]: 190 nM, 10.2 nM, 481 nM, > 100 µM, 992 nM
TGI [19]: 983 nM [mean of 17 tests] and > 100 µM [mean of 2 tests] and 23.8 µM [mean of 24 tests] and > 82.9 µM [mean of 8 tests]
TGI [20]: 52.1 nM [1 test] and 20.3 µM [mean of 12 tests] and 825 nM [mean of 18 tests] and 441 nM, 40.9 µM [mean of 2 tests] and 53.8 µM [mean of 5 tests]
TGI [21]: 89.5 nM [1 test] and 974 nM [mean of 16 tests] and 8.38 µM [mean of 18 tests] and 59 µM [mean of 5 tests]
TGI [22]: 7.59 nM [1 test] and 90.8 nM [mean of 13 tests] and 1.2 µM [mean of 15 tests] and 0.145 nM [mean of 2 tests] and 1.53 µM [mean of 5 tests]
TGI [23]: 867 nM, 1.36 µM, 21 µM, 12 µM, 39.5 µM
TGI [24]: 631 nM, 1.8 µM, 15.8 µM, > 100 µM, 35.9 µM
TGI [25]: 670 nM, 2.87 µM, 16.3 µM, 65.1 µM, > 84.4 µM
TGI [26]: 953 nM, 1.3 µM, 17.4 µM, 82.8 µM, > 83.3 µM
TGI [27]: 782 nM, 1.65 µM, 2.81 µM, 43.8 µM
TGI [28]: 10.6 nM, 254 nM, 261 nM
